# Data as given in ChEMBL document CHEMBL5308541, “MAIP: An Open-Source Tool to Enrich High-Throughput Screening Output and Identify Novel, Druglike Molecules with Antimalarial Activity” (ACS Med Chem Lett, 2023).
# Among all 150,000 compounds or so, about 540 (0.36%) showed an effect of 50% or more. Some of the results follow.
# Tested on: Plasmodium falciparum
# Assay: Primary screen in NF54 nanoGlo assay, in single point, at 2uM, 72h; a lower Z score goes with more inhibition
# Format: functional, Erythrocyte
# Conditions: timepoint 72 hour
SMILES,% Inhibition [%],Z score
O[C@H](COC1CCOCC1)CN1CCN(c2nccc3sccc23)CC1,-12,2.57
Cc1ccc(O)c(-c2[nH]nc3c2[C@@H](c2ccc(C(C)(C)C)cc2)N(CCCN2CCOCC2)C3=O)c1,-12,1.88
CC(NCCCC1(O)CCC1)C1CN(C(=O)OC(C)(C)C)CCO1 (centres undefined),0,-0.07
Cc1ccc(C)c(CN(C)C(=O)[C@@H]2CS(=O)(=O)CC(=O)N2)c1,-10,2.09
O=C(Cc1cccc2ccccc12)N1CCC(N2CCC(Oc3ccccc3F)CC2)CC1,-2,0.38
FC(F)(F)c1ccccc1-c1ccc(-c2nnc(Nc3ccccc3)s2)o1,-6,1.07
C[C@@H](c1cccc(-c2nc3cc(C#N)ccc3[nH]2)c1)N(C)C,27,-4.6
COc1cc(CCNC(=O)N2CCN(c3cccc4[nH]ccc34)CC2)ccn1,0,-0.07
CC(C)(C)c1nc(CN2CCCN(c3nc(-c4ccncc4)nc4ccccc34)CC2)no1,7,-1.43
CC1CN(CCN2CCN(CCN3CCOC(C)C3)C(C(=O)N(C)C)C2)CCO1 (centres undefined),0,0.09
N#Cc1ccccc1-c1ccc(-c2c(-c3ccccc3)ncn2CCO)o1,2,-0.47
O=C1NCC(=O)N2C[C@H](Nc3ncnc4cc[nH]c34)C[C@@H]12,-9,1.44
CCOc1ccc([C@@H]2C[C@H]2NC(=O)[C@@H](NC(C)=O)C(C)(C)C)cc1,-6,0.92
COCCn1ccc2c(OCC(=O)Nc3nc(-c4c[nH]c5ccc(OC)cc45)cs3)cccc21,1,-0.14
Cc1oc2c(c1C(=O)N[C@@H](C)c1cn3ncsc3n1)C(=O)CCC2,-3,0.54
O=C(CNC(=O)c1ncccc1C(=O)NCCc1cc2ccccc2[nH]1)NCCc1cc2ccccc2[nH]1,-7,1.21
O=C(N[C@H]1CC[C@H](O)CC1)c1nnc2c(Br)cccn12,-9,1.39
NC(=O)CCCNC(=O)N[C@H]1CCc2c(Cl)cccc21,-1,0.11
CC(C)N1CCC(N(C)C(=O)c2cnc3[nH]ccc3c2)CC1,-4,0.64
CN1CCN(C2COCC2Nc2nc(N(C)C)nc3c2CCCC3)CC1 (centres undefined),-8,1.32
COc1ccc(CN2CCc3[nH]c(-c4cccc(F)c4)nc3C2)cc1O,-14,2.99

SMILES,% Inhibition [%],Z score
CCCNc1ncc(CN2CCCCOc3cc(ccc3OC)C3CC(CNC(=O)C2)C2CCCN32)cn1 (centres undefined),-8,1.46
O[C@@H](CNC1CCN(c2ccccn2)CC1)c1cccc(C(F)(F)F)c1,4,-0.66
OCCNc1cc([C@H]2C[C@@H](Nc3ccc4ccccc4n3)C2)ncn1,-4,0.75
CC(NCCCN1CCCC1)C1CCCCN1C(=O)OC(C)(C)C (centres undefined),-5,0.92
NCCc1ccc(CNCC2(N3CCCCC3)CCCC2)cc1,8,-1.3
Cc1ccn2ncc(C(=O)N(C)[C@H]3CCCCNC3=O)c2n1,-5,0.95
CCOc1ccc(CNCc2nc3cc(F)ccc3[nH]2)cc1CO,-5,0.74
O=C(c1cccc(-c2nc3ccccc3n2CCO)c1)N1CCCNCC1,3,-0.69
Cc1cc(C)c(CN2CCC[C@@]2(C)C(=O)O)c(C)n1,-17,3.34
Cc1cnccc1N1CCCN(C(=O)[C@H]2CCCN(C3CCOCC3)C2)CC1,-4,0.89
COc1ccc2c(O)c(Br)c(C)nc2c1,75,-13.24
O=C(Nc1nc2ccccc2[nH]1)c1cccc(CNc2ccncn2)c1,-6,0.98
F[C@H]1C[C@@H](CNCc2ccc3cn[nH]c3c2)N(c2cccnn2)C1,-18,2.71
Cn1cnc2cc(S(=O)(=O)N3CCC[C@@]3(C)C(=O)O)ccc21,-3,0.46
Cc1cc(C)n2ncc(C(=O)C(c3nc4ccccc4s3)c3nc4ccccc4s3)c2n1,-3,0.51
Cn1cc(-c2cc(CN3CCC(Nc4cccnn4)CC3)on2)cn1,-4,0.64
CNC(=O)c1[nH]nc2c1CN(CC(=O)N1CCOc3ccccc31)CC2,3,-0.46
Clc1ccc(NC2CCN(c3ccncc3)CC2)cc1CN1CCOCC1,-2,0.24
O=C(C1CCOCC1)N1C[C@H](CNc2ncnc3[nH]ccc23)C2(CCOCC2)C1,6,-1.09
CCCO[C@H]1CCCN(S(=O)(=O)c2ccc(NC(C)=O)c3ccccc23)C1,-9,1.91
Nc1nc(NCCO)cc(-c2cccc3cnccc23)n1,2,-0.37

SMILES,% Inhibition [%],Z score
Cc1ccc2nc(CN3CCN(CC4CCN(C)CC4)CC3)cc(O)c2c1,2,-0.29
COc1cccc2c1OCC(CN(C)[C@@H](C)c1ccncc1)=C2,-10,2.19
OCC1CC(Nc2ncnc3[nH]ccc23)C1 (centres undefined),0,-0.02
CN(C(=O)c1cccc(CCC(C)(C)O)c1)C1CC(C)(C)NC(C)(C)C1,-3,0.64
c1ccc2oc(CCNC3CCN(c4ccc5c(c4)OCO5)CC3)nc2c1,-14,2.38
CN1CCn2ncc(C(=O)N[C@@H]3C[C@H]3c3ccccc3)c2S1(=O)=O,-4,0.86
Cc1cccc2c(O)c(C(=O)N[C@H]3CCCN(C4CCN(C)CC4)C3)cnc12,-8,1.74
Cc1nc(N2CCOCC2)ccc1N[C@@H](C)c1ccccc1OC(F)F,-9,1.47
Oc1cc(CN2CCC3(CC2)CNc2ccccc23)nc2c(Cl)cccc12,-17,2.58
O=C1C[C@H](CNc2ncnc3c2CCNCC3)CN1C1CCCC1,-3,0.44
Cn1cnnc1-c1ccnc(NCc2cnc(NC(=O)OC(C)(C)C)s2)c1,-10,1.48
Cc1nc(CNC(=O)c2cccc(CO)c2)sc1C,-7,1.12
CC1CCN(C(=O)Nc2cc(N(C)C)ncn2)CC(C)C1 (centres undefined),-15,2.95
C[C@H]1CN(C(=O)c2cccc(-c3cn(C)nc3-c3ccccc3)c2)CCN1,-10,1.74
Cc1cc(N)nc(NCCc2ccc(Cl)cc2)n1,18,-3.51
COc1ccc2c(C)cc(Nc3cc(C)c(Cl)cc3OC)nc2c1,-8,1.6
O=C(c1ccc2[nH]cnc2c1)N1CCN(c2nc(-c3cccnc3)nc3ccccc23)CC1,20,-3.48
O=C1CCCNC(=O)c2cccc(c2)-c2cccc(c2)COC2CNCC2N1 (centres undefined),-8,1.37
Cc1cc(NCc2cc(O[C@H]3CCNC3)ccn2)c(C#N)cn1,-2,0.27
O=C(c1ccc(NCCN2CCN(c3cccc(C(F)(F)F)c3)CC2)nc1)N1CCCC1,-9,1.37
Fc1cnc(N[C@H]2CCCN(Cc3cccs3)C2)nc1N1CCOCC1,11,-2.47

SMILES,% Inhibition [%],Z score
CN1CCC(CNC2CC3CC(C2)N(C(=O)OC(C)(C)C)C3)CC1 (centres undefined),72,-15.46
O=S1(=O)CCCN1c1cccc(CNc2ncnc3cc(F)c(F)cc23)c1,-7,1.31
OC[C@H]1CNCCC12CCN(CCN1CCCCC1)CC2,8,-1.36
Nc1ncc(-c2c(-c3ccccc3)ncn2Cc2nc3c(s2)CCCC3)cn1,-2,0.28
C[C@H]1CN(CCO)CCN1C(=O)c1cccc2ncccc12,-3,0.65
OC[C@H]1CCCN(c2cc(NCc3ccc(-n4ccnc4)c(F)c3)ncn2)C1,9,-1.64
Cc1ccc2[nH]c(C(=O)NC[C@@H]3C[C@H](F)CN3c3ccnc(N(C)C)n3)cc2c1,4,-0.82
CC(C)N1CCN(c2ccc(C(=O)Nc3cncnc3N3CCCC3)cc2)CC1,3,-0.56
Cc1onc(OC(F)F)c1NC(=O)[C@@H]1CCc2ccc(F)cc2O1,1,-0.24
Nc1ccc2nc(NCCc3ccc(F)cc3)oc2c1,-9,1.86
COCC(CCCNC(=O)OC(C)(C)C)NC1CCN(c2ccc(C(F)(F)F)cc2)C1 (centres undefined),-9,1.88
CN(C)C(=O)NCC(=O)N1CC(O)C(Cc2ccc3ccccc3n2)C1 (centres undefined),-4,0.75
NC(CN1CCOCC1)=NOCc1cc2ccccc2s1,-1,0.28
COc1cccc(-c2cc(=O)n3nc(C)c(-c4ccccc4)c3[nH]2)c1,0,-0.07
CCCn1c(=O)cc(Nc2cccc(F)c2)c2ccccc21,-18,2.66
CN1CCN(C2CCN(C(=O)c3nc4cc(F)ccc4[nH]3)CC2CCCO)CC1 (centres undefined),-1,0.12
c1nc(NCC2CC2)cc(NC2CCN(C[C@H]3CCOC3)CC2)n1,8,-1.34
c1cc(CN2CCCN(C3CCCCC3)CC2)c2[nH]ccc2c1,-8,1.37
COC(OC)c1ccc(F)c(CNC2CCC3(CC2)OCCO3)c1,-5,0.82
